Test results reported in PubChem BioAssay AID1508623 (National Center for Advancing Translational Sciences (NCATS), 2021).
Out of some 48,000 compounds screened, about 450 (0.94%) were called active. Another 19% or so got no clear call; they are omitted. The call rests on the fitted dose curve; in most records, active means well fitted inhibition curve with a large enough effect; inconclusive means small, poorly fitted or top-dose-only effect; inactive means no such curve, though single readings can be large or run the other way. The list shows a part of the results.

Test: Primary qHTS for Identification of Small Molecule Inhibitors of Huntingtin Promoter Activity; further: nearly all actives have a fitted effect of over 50% in size
Conditions: HEK293 HTT promoter firefly luciferase reporter (activity 0% = vehicle and -100% = no light), 24 h; series mostly up to 57.5 µM; activity change, negative = inhibition: at the top concentration
Summary of the method: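 Quantitative HTS used concentration series of up to 57.5 uM final on HEK293 luciferase reporter cells, 24 h at 37 degrees C. Readout was Dual-Glo firefly luminescence.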
Potency means the concentration at half of the fitted maximal effect.

Activity change, negative = inhibition, inactive:
CCOc1ccc(CNC(=O)c2ccc3c(c2)nc2n3CCOC2)cc1OC -9.57%
CCc1cccc(NC(=O)C(Cc2ccccc2)n2cccc2)c1 (stereo unspecified) -27.3%
COc1ccc(N2CC(NC(=O)c3ccc(S(=O)(=O)N4CCCCC4)cc3)CC2=O)cc1 (stereo unspecified) -29.9%
CC1=C(C(=O)Nc2ccc(F)cc2F)C2(CCN(C(C)C)CC2)OC1=O -1.53%
CCCOc1cccc(C(=O)Nc2cc(-c3ccccc3)no2)c1 34.7%
CCC1Oc2ccc(Cl)cc2N(CC(=O)NCCc2ccc(Cl)cc2)C1=O (stereo unspecified) -16%
CCCN1Cc2cccc(C(=O)Nc3cccc(C(=O)OCC)c3)c2C1=O -8.96%
CCc1cccc(C)c1NC(=O)Cn1nc(C)c2nn(-c3ccc(Cl)cc3)c(C)c2c1=O -27.4%
COc1ccccc1C(=O)Nc1ccc2oc(-c3cccc4c(Br)cccc34)nc2c1 -7.45%
O=C(Cc1csc2nc(-c3ccc(F)cc3)cn12)NCc1ccccc1 19.2%
O=[N+]([O-])c1cc(-c2nc(-c3ccccc3)no2)ccc1NC1CCCCC1 -13.3%
C=Cc1ccc(Cn2c(C)c(CNCc3ccccc3C)c(C(=O)O)c2C)cc1 -5.29%
COc1ccccc1CNC(=O)CCn1c(=O)c2cccn2c2cccnc21 -0.396%
O=C(Nc1nnc(S(=O)(=O)N2CCCCC2)s1)c1ccccc1Br -17.7%
Cc1ccc(NC(=O)c2ccc3c(O)c(S(=O)(=O)c4ccccc4)c(=O)[nH]c3c2)cc1Cl -8.59%
Cc1ccc(-c2nnc(Nc3ccc(C(=O)N(C)C)cc3)c3ccccc23)cc1S(=O)(=O)N(C)C -13.1%
CCN(C(=O)CN1C(=O)COc2ccc(S(=O)(=O)N3CCOCC3)cc21)c1ccc(OC)cc1 -5.26%
CC(C)(C)CC(=O)NCC(c1ccc2c(c1)OCO2)N1CCOCC1 (stereo unspecified) -15.4%
O=C(Nc1cccc(F)c1)c1ccc2c(c1)N(Cc1ccccc1)C(=O)c1ccccc1S2(=O)=O -16.5%
O=C(COc1ccc(Cl)cc1)OCc1cc(=O)n2nc(C3CC3)sc2n1 -10.2%
COC(=O)c1ccccc1NC(=O)C1CCN(C(=O)N2CC(C)Oc3ccccc32)CC1 (stereo unspecified) -19.4%
COc1ccc(C(=O)NCC(c2ccc(N(C)C)cc2)N2CCc3ccccc32)cc1OC (stereo unspecified) -14.9%
N[C@@H](C(=O)N[C@@H]1C(=O)N2C(C(=O)O)=C(Cl)CS[C@H]12)c1ccccc1
COc1ccc(-c2nc3ccccc3s2)cc1NC(=O)c1ccc(F)cc1 11.5%
CN1[C@@H]2CC[C@H]1CC(NC(=O)n1c(=O)[nH]c3ccccc31)C2 (stereo partly specified) 3.34%
Cc1ccc(OCC(=O)Nc2ccccc2OCc2cc(=O)n3ccccc3n2)cc1C 0.0621%
Cc1cccc(NC(c2ccccc2F)c2ccc3ccc(C)nc3c2O)n1 (stereo unspecified) 3.12%
CCOC(=O)Cn1c(=O)oc2cc(S(=O)(=O)N3CCN(c4cccc(C)c4)C(C)C3)ccc21 (stereo unspecified) -25.5%
CC(=O)Nc1ccc2nc3c(=O)n(C)c(=O)n(C)c3nc2c1C 0.302%
Cc1nc2cccnc2n1-c1cccc(C(=O)NCCN(C)C)c1 -5.81%
COc1ccc(-c2cc(C(F)F)nn2-c2ccc(S(N)(=O)=O)cc2)cc1F -4.23%
N#Cc1nc(-c2ccc(COc3ccccc3)o2)oc1N1CCN(c2ccccc2)CC1 -4.46%
CCc1ccc(CNC(=O)c2cnc3sc(N4CCOCC4)nn3c2=O)cc1 -3.12%
Cc1cccc(OC(=O)c2cc(-c3ccc(C)c(C)c3)on2)c1 -3.77%
COc1ccc(Cl)cc1NC(=O)N1CCN(Cc2cc(=O)n3nc(-c4ccccc4)sc3n2)CC1 -7.34%
NC1=NC(c2cccc(Cl)c2)n2c(nc3ccccc32)N1 (stereo unspecified) 12.4%
CCCS(=O)(=O)Nc1cccc(-c2cn3ccc(C)cc3n2)c1 31.6%
CCOc1ccc2c(c1)c(=O)c(S(=O)(=O)c1ccc(F)cc1)cn2CC(=O)Nc1ccccc1C -20.1%
CCOC(=O)c1cnn(-c2ccc(C(=O)Nc3ccc(C(C)=O)cc3)cc2)c1N -7.12%
CCOC(=O)c1c(S(=O)(=O)N2CCCC(C(=O)NCc3cccc(C)c3)C2)c(C)n(C)c1C (stereo unspecified) -2.34%
COc1cc2cc(CNc3ccccc3)c(=O)n(CC(=O)Nc3ccc(C)c(Cl)c3)c2cc1OC -22.8%
COCCN(Cc1ccco1)C(=O)c1cc2c(=O)[nH]c3ccc(C)cc3c2s1 5.68%
COC(=O)c1ccc(NC(=O)CCCC(=O)OCC(=O)c2ccc(Cl)cc2)cc1 -2.07%
Cc1ccc(-c2noc(-c3ccc(N4CCN(C)CC4)c([N+](=O)[O-])c3)n2)cc1 -19.6%
O=C(COc1ccccc1)NCC(c1ccc(Cl)cc1)N1CCOCC1 (stereo unspecified) -24.8%
Cc1ccc(NC(=O)c2oc3ccc4c(c3c2C)C(=O)CC(C)(C)O4)c(C)c1 -19.5%
COc1ccc(CCNC(=O)c2cccc(Nc3nc4ccccc4nc3-n3nc(C)cc3C)c2)cc1OC -11.4%
O=C(CSc1n[nH]c(-c2ccc(F)cc2)n1)NCc1ccccc1Cl -23.9%
Cn1ncc2c(N3CCN(c4ccccc4F)CC3)ncnc21 -25.1%
COc1ccc(C)cc1NC(=O)Nc1cccc(OCc2cc(=O)n3ccc(C)cc3n2)c1 14%
CCOc1ccc(/C=C/c2nc(C#N)c(NC(C)c3ccccc3)o2)cc1 (stereo unspecified) -3.48%
Cc1ccccc1OCC(=O)NCC(c1ccc(Cl)cc1)N1CCCCC1 (stereo unspecified) -31.3%
CCOC(=O)c1ccc(-n2c(CCC(=O)O)ccc2-c2ccccc2)cc1 5.36%
COc1cccc(C(=O)N2c3ncnn3C3(CCCCC3)[C@@H]3CCCC[C@@H]32)c1 -24.5%
COc1ccc(N2CCN(S(=O)(=O)c3ccc(-c4ccno4)cc3OC)CC2)cc1 4.98%
CCc1cccc(C)c1NC(=O)CN1C(=O)C2(SCC(=O)N2c2cccc(F)c2)c2ccccc21 (stereo unspecified) -19.9%
COc1ccc(OC)c(Nc2sc(C(=O)c3ccccc3)c(N)c2S(=O)(=O)c2ccccc2)c1 -18%
COc1ccc(C(=O)COC(=O)c2cc(-c3cccs3)nc3ccccc23)cc1 15.9%
O=c1oc2ccccc2c(N2CCN(c3ccc(F)cc3)CC2)c1CN1CCCC1 -8.07%
O=C(Cn1ncc2c([nH]c3ccccc32)c1=O)NCCCN1CCN(c2ccccc2)CC1 -22.4%

Potency, active:
COc1ccc(C2C=C(c3ccc(Cl)cc3)Nc3nc(-c4ccc(Cl)cc4)nn32)cc1 (stereo unspecified) 25.1 µM
